Experimental data published in the supplement of paper PMC7826260.
The list shows a part of the results. One pool of 16,384 single-stranded DNAs met each Rep nickase domain in vitro for 1 h at 37 °C with 3 µM enzyme; only the middle of the 90-letter strands is printed. Numbers give uncut DNA relative to the enzyme-free pool, as log2; the lower, the more was cut; hits are not called. Reads are scaled to the total; uncut strands gain when others are lost, and binding without cutting may add a little.

Legend:
Assay in all cases: uncleaved DNA left, log2 of reads against the no-enzyme library (log2 ratio); higher = less cleavage (more negative = more Rep cleavage of the k-mer); sequences stand for … in CTCGTCCG…ACCGGAGA
[1] = test system: T1, Rep nickase domain of Muscovy duck circovirus
T1 sequence (Rep 1-111, printed without the tag): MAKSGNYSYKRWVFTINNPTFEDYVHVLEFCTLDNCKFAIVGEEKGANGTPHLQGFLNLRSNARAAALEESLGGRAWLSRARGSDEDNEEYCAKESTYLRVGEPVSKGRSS
Protocol: (§1)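 A pool of 90-nt single-stranded DNAs with seven random bases just before the constant AC of the nick site (name = the seven bases) was cut by 3 µM recombinant His6-SUMO-tagged Rep nickase domain (300 nM DNA, 50 mM HEPES pH 8.0, 50 mM NaCl, 1 mM MnCl2, 1 h, 37 °C, three replicates). Uncut DNA was amplified and sequenced.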

[2] = test system: T2, Rep nickase domain of banana bunchy top virus
T2 sequence (Rep 1-94, printed without the tag): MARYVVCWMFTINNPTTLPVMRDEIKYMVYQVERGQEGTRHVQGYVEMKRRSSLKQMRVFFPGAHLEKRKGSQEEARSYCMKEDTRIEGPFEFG
Protocol: as §1

[3] = test system: T3, Rep nickase domain of cabbage leaf curl virus
T3 sequence (Rep 1-116, printed without the tag): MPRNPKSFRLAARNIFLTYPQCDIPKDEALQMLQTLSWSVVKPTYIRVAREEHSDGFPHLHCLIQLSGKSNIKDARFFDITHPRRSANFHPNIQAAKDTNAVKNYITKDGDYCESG
Protocol: as §1

[4] = test system: T4, Rep nickase domain of chickpea chlorotic dwarf virus
T4 sequence (Rep 1-124, printed without the tag): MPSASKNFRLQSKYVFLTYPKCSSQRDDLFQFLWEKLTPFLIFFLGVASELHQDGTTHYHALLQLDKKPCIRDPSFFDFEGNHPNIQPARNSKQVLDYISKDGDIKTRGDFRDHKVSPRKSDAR
Protocol: as §1

[5] = test system: T5, Rep nickase domain of faba bean necrotic yellows virus
T5 sequence (Rep 1-98, printed without the tag): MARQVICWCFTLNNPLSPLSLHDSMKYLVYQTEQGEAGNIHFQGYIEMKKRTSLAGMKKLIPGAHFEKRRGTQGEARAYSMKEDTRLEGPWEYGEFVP
Protocol: as §1

[6] = test system: T6, Rep nickase domain of maize striate mosaic virus
T6 sequence (Rep 1-117, printed without the tag): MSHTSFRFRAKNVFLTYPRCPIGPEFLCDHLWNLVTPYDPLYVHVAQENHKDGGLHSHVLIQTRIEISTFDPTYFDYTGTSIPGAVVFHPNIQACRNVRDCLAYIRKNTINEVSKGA
Protocol: as §1

[7] = test system: T7, Rep nickase domain of porcine circovirus 2
T7 sequence (Rep 2-116, printed without the tag): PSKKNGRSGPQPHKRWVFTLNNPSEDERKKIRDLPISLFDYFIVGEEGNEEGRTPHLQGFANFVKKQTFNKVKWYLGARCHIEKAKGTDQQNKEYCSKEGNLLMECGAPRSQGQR
Protocol: as §1

[8] = test system: T8, Rep nickase domain of tomato golden mosaic virus
T8 sequence (Rep 1-124, printed without the tag): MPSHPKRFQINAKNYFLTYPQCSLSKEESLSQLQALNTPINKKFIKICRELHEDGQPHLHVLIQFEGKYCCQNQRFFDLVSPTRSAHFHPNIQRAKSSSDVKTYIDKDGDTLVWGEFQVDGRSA
Protocol: as §1

[9] = test system: T9, Rep nickase domain of tomato yellow leaf curl virus
T9 sequence (Rep 1-136, printed without the tag): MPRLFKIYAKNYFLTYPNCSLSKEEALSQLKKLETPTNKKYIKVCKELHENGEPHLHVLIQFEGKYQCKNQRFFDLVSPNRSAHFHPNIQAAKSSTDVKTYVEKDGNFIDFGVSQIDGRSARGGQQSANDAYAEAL
Protocol: as §1

[10] = test system: T10, Rep nickase domain of wheat dwarf virus
T10 sequence (Rep 1-137, printed without the tag): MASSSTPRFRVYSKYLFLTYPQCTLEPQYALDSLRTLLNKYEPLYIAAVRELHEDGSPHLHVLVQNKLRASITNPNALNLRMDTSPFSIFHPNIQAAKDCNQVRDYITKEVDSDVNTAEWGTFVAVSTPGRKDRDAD
Protocol: as §1

Sequence | uncleaved DNA left (log2) [1] | uncleaved DNA left (log2) [2] | uncleaved DNA left (log2) [3] | uncleaved DNA left (log2) [4] | uncleaved DNA left (log2) [5] | uncleaved DNA left (log2) [6] | uncleaved DNA left (log2) [7] | uncleaved DNA left (log2) [8] | uncleaved DNA left (log2) [9] | uncleaved DNA left (log2) [10]
TAACGGC | 0.0378 | 0.0444 | 0.0301 | -0.318 | 0.031 | -0.349 | 0.0306 | 0.0927 | 0.0132 | 0.0887
GCGTCAT | -0.00276 | 0.0416 | 0.638 | 1.52 | -0.0328 | 1.82 | 0.0365 | -0.0454 | -0.015 | 0.0142
GCAATAG | -0.019 | -0.0115 | -0.752 | -0.454 | 0.031 | -1.16 | 0.0928 | -0.00196 | -0.0181 | -0.131
GCGTTAA | -0.148 | -0.0272 | 0.0484 | 0.151 | -0.0321 | 0.214 | 0.0231 | -0.0313 | -0.015 | -0.0511
GAGGCCG | 0.116 | 0.122 | -0.461 | -0.112 | 0.122 | -0.495 | 0.244 | 0.176 | 0.214 | 0.178
ATCCATG | 0.119 | 0.0266 | -0.569 | -0.49 | 0.0853 | -0.878 | 0.211 | 0.0545 | 0.0814 | -0.01
CATGACA | 0.0659 | 0.0581 | -0.0304 | -2 | -0.0361 | -0.343 | 0.0203 | 0.0347 | 0.0872 | 0.113
CGTCCTT | -0.0512 | 0.0951 | 0.166 | -1.19 | 0.0194 | 0.134 | -0.328 | -0.165 | 0.155 | 0.0478
TTTGGGG | 0.0857 | 0.102 | 0.225 | 0.315 | 0.0392 | -0.096 | 0.237 | 0.141 | -0.038 | -0.0263
CGCAAGC | -0.0232 | -0.045 | 0.222 | 0.551 | -0.0366 | 0.0452 | -0.0342 | 0.0293 | -0.107 | 0.0678
GGCACTT | -0.00638 | 0.0473 | 0.627 | 1.56 | -0.0592 | 2.11 | 0.0817 | -0.0714 | 0.0826 | 0.11
GATCCCA | -0.0598 | -0.0216 | 0.215 | -0.0555 | -0.079 | 0.917 | -0.135 | 0.000549 | 0.00634 | 0.0534
CTCCTGA | 0.106 | 0.14 | 0.025 | 0.00602 | 0.0766 | -0.208 | 0.134 | -0.064 | 0.183 | 0.194
CCGCCCT | -0.156 | -0.143 | -0.0737 | -1.64 | -0.0635 | -0.234 | -0.231 | -0.16 | -0.135 | -0.0903
GAATATC | 0.0156 | -0.0316 | -2.39 | -2.09 | -0.0424 | -0.212 | -0.238 | -0.475 | 0.0577 | -0.486
